From PubChem BioAssay AID886 (National Center for Advancing Translational Sciences (NCATS), 2007)
Values joined by “and” are separate entries in the source; they are usually repeats but may differ in a detail not shown here. Equal entries are not always repeated. The whole screen tested about 73,000 compounds, of which about 2,500 (3.4%) were called active. The inconclusive results got no clear call from the source; some entries with a clear call stand among them for comparison. The call rests on the fitted dose curve; in most records, active means well fitted inhibition curve with a large enough effect; inconclusive means small, poorly fitted or top-dose-only effect; inactive means no such curve, though single readings can be large or run the other way. Where the call is inconclusive, the potency comes from a doubtful curve fit.

The compounds below were run against 3-hydroxyacyl-CoA dehydrogenase type-2 (Homo sapiens) (UniProt Q99714) (assay: qHTS Assay for Inhibitors of HADH2 (Hydroxyacyl-Coenzyme A Dehydrogenase, Type II)). Conditions: recombinant HADH2, NADH fluorescence, beta-hydroxybutyryl-CoA; activity change, negative = inhibition: at 57.1 µM (top of the series).
How it was run: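 E. coli-expressed His-tagged HADH2 tested at 20 nM in alkaline Tris buffer (pH 9.0); oxidation of 90 uM beta-hydroxybutyryl-CoA with 1 mM NAD+ tracked fluorimetrically for 4 min.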
Further: nearly all actives have a fitted effect of over 60% in size.
On the % scale 0 is the no-effect control and ±100 the full control effect; potency means the concentration at half of the fitted maximal effect; tags describe the fitted curve by direction and shape.

UniProt Q99714, sequence (Q99714 whole entry, looked up): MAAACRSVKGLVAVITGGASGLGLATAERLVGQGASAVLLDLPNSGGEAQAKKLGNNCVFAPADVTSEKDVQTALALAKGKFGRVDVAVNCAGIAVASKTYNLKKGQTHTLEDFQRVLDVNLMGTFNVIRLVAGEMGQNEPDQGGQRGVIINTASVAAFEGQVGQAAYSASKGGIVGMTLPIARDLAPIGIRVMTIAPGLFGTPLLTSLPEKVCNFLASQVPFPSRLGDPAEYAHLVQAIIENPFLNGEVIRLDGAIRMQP
UniProt Q99714, sequence (Q99714 whole entry, looked up): as above

Structure (SMILES) | Potency | activity change, negative = inhibition
CCN1CCN(C(c2cc3cc4c(cc3[nH]c2=O)OCO4)c2nnnn2C(C)(C)CC)CC1 (configuration not stated) | inconclusive: 39.8 µM [inhibitor, single point] | 
O=C(c1c[nH]c(=O)n(-c2ccccc2)c1=O)N1CCc2ccccc21 |  | inactive: -12.3%
O=S(=O)(O)CCN1CCOCC1 |  | inactive: 0.734%
COc1ccc(-c2nc3cccc(C)n3c2NCc2ccco2)cc1OC | active: 25.1 µM | 
CC(=O)N(C)c1ccc(NS(=O)(=O)Cc2ccccc2)cc1 | inconclusive: 12.6 µM [inhibitor, partial curve] | 
O=C(Nc1ccc(F)cc1)N(Cc1ccco1)Cc1cc2cc3c(cc2[nH]c1=O)OCO3 | inconclusive: 31.6 µM [inhibitor, single point] | 
CC1(C)Cc2nc3oc4c(NCc5ccccc5)ncnc4c3cc2CO1 | inconclusive: 39.8 µM [inhibitor, single point] | 
COCc1cc(C)[nH]c(=O)c1C#N | active: 3.98 µM | 
CC1CCC2C(C1)c1sc(=O)[nH]c1SC2(C)C (configuration not stated) | inconclusive: 0.158 µM [inhibitor, full curve] | 
Cc1cc2n(n1)C(c1sccc1C)Nc1ccccc1-2 (configuration not stated) | active: 25.1 µM | 
Cc1cccc2c(=O)oc(-c3ccc4c(c3)C(=O)N(CC3CCCO3)C4=O)nc12 (configuration not stated) |  | inactive: -0.158%
CN(C)C(=O)c1ccc(-c2ccc3ncnc(NCc4cccnc4)c3c2)cc1 | inconclusive: 39.8 µM [inhibitor, single point] | 
COc1ccccc1NC(=O)CSCC(N)=O | inconclusive: 39.8 µM [inhibitor, single point] | 
Cn1c(C(=O)N2CCN(c3ccccn3)CC2)cc2c(=O)n(C)c3ccccc3c21 | inconclusive: 31.6 µM [inhibitor, single point] | 
Cn1cc(CC(=O)N2CCN(c3ccc(Cl)cc3)CC2)c2ccccc21 |  | inactive: 1.24%
CC(=O)Oc1ccc(NC(=O)CSc2ccccc2)cc1 | inconclusive: 3.98 µM [inhibitor, single point] | 
O=C(Nc1ccc(N2CCOCC2)cc1)Nc1cnsn1 | active: 10 µM | 
CC1(C)CC(=O)C2=C(C1)OC1=C(C(=O)CC(C)(C)C1)C2c1ccc(O)cc1O | active: 3.98 µM | 
CCCN1CC=C2C(C#N)=C(N)C(C#N)(C#N)C(c3cc(OC)ccc3OC)C2C1 (configuration not stated) | inconclusive: 39.8 µM [inhibitor, single point] | 
COc1ccccc1-c1cncnc1NCc1ccccc1 | inconclusive: 31.6 µM [inhibitor, partial curve] | 
Cc1ccc(C(=O)Cn2c(N3CCOCC3)nc3c2c(=O)n(C)c(=O)n3C)cc1 |  | inactive: 13.3%
Fc1cccc2sc(Nc3nnc(-c4ccco4)o3)nc12 | inconclusive: 31.6 µM [inhibitor, single point] | 
O=C(NCc1ccco1)c1cccn2c(=O)c3cc(Br)ccc3nc12 | inconclusive: 15.8 µM [inhibitor, partial curve] | 
CCOC(=O)c1[nH]c2ccc(OCC)cc2c1NC(=O)CN1CCN(c2ccccn2)CC1 | inconclusive: 39.8 µM [inhibitor, single point] | 

Structure (SMILES) | Potency | activity change, negative = inhibition
CC(=O)c1cccc(-n2c(CCC(=O)O)ccc2-c2cccs2)c1 | active: 15.8 µM | 
COc1cc(OC)cc(C(=O)N2c3ccc(F)cc3CCC2C)c1 (configuration not stated) |  | inactive: 1.84%
CC(=O)OC[C@H]1O[C@@H](CCO/N=C2/[C@H]3O[C@@H]3[C@@H](O)[C@H]3[C@H]2CCn2c(=O)n(-c4ccccc4)c(=O)n23)C=C[C@@H]1OC(C)=O | inconclusive: 5.01 µM [inhibitor, single point] | 
COc1cccc(-c2nnc(N(C)C(=O)c3ccno3)s2)c1 | inconclusive: 39.8 µM [inhibitor, single point] | 
O=C1c2ccccc2C(=O)N1Cc1nc2ccccc2o1 |  | inactive: 4.14%
CCC(=O)N1CCN(c2ccccc2NC(=O)c2cccc(C)c2)CC1 | inconclusive: 31.6 µM [inhibitor, single point] | 
CCNc1ncc2nc(-c3cn(C)c4ccccc34)c(=O)n(Cc3ccc(F)cc3)c2n1 |  | inactive: 3.17%
Cc1ccc2nc(NCCCNC(=O)c3cnccn3)c(C#N)cc2c1 | inconclusive: 39.8 µM [inhibitor, single point] | 
CCC(=O)Nc1ccc(C(=O)Nc2ccc3c(c2)C(=O)N(CC2CCCO2)C3=O)cc1 (configuration not stated) | active: 10 µM | 
COc1ccc(-c2nnc(-c3cccs3)o2)cc1OC |  | inactive: 9.66%
COc1ncc2nc(C)c(=O)n(Cc3cccs3)c2n1 |  | inactive: 5.31%
CN(Cc1cc(Cl)cc(Cl)c1O)Cc1c(O)ccc2ccccc12 | inconclusive: 3.98 µM [inhibitor, single point] | 
O=C(O)C1CCCN1S(=O)(=O)c1cccc2cccnc12 (configuration not stated) |  | inactive: 8.71%
Cc1occc1-c1nnc(SCC(=O)c2cc3ccccc3oc2=O)o1 | active: 7.94 µM | 
CCOC(=O)C1CCN(C(=O)CCNC(=O)c2cc(OC)c(OC)c(OC)c2)CC1 |  | inactive: 13.1%
COc1ccccc1N1C(=O)CC(Nc2ccc(N3CCOCC3)cc2)C1=O (configuration not stated) | inconclusive: 25.1 µM [inhibitor, single point] | 
CCOC(=O)N1CCN(C(=O)Nc2ccc3nc(C)c(C)nc3c2)CC1 | inconclusive: 31.6 µM [inhibitor, single point] | 
Cc1ccc(-c2nc3ncccn3c2NC(=O)C2CC2)cc1 | inconclusive: 25.1 µM [inhibitor, single point] | 
Cn1c(SCC(=O)c2ccc(-c3ccccc3)cc2)nnc1-c1ccco1 | inconclusive: 25.1 µM [inhibitor, single point] | 
COc1cccc(C(=O)N2CCN(C(=O)c3cccc(F)c3)CC2)c1 |  | inactive: -5.34%
COCCn1nnnc1C(CC(C)C)N1CCN(c2cccc(OC)c2)CC1 (configuration not stated) |  | inactive: -2.61%
CC(C)(C)n1nnnc1CN(Cc1ccco1)Cc1cc2cc3c(cc2[nH]c1=O)OCO3 |  | inactive: -2.63%
COc1cc(NC(=O)CSCc2cnn(-c3ccccc3)c2-n2cccc2)cc(OC)c1 | inconclusive: 31.6 µM [inhibitor, single point] | 
COc1ccc(OC)c(S(=O)(=O)NCCc2cn3ccsc3n2)c1 | inconclusive: 6.31 µM [inhibitor, single point] | 

Structure (SMILES) | Potency | activity change, negative = inhibition
c1cc2[nH]snc2c2nc(C3CC3)nc12 | inconclusive: 31.6 µM [inhibitor, single point] | 
FC(F)(F)c1nnc2ccc(NCn3nnc4ccccc43)nn12 | inconclusive: 1 µM [inhibitor, full curve] | 
O=C(C1=C(O)C(=O)N(Cc2ccco2)C1c1cccnc1)c1cc2ccccc2o1 (configuration not stated) | inconclusive: 3.98 µM [inhibitor, full curve, poor fit] | 
C[C@@H](c1ccccc1)N1C(=O)[C@H]2[C@@H]3[C@H](O)[C@H](O)CC(=O)[C@H]3CC[C@H]2C1=O |  | inactive: -4.35% [at 11.4 µM] and inactive: -3.02% [at 11.4 µM]
Cc1oc(C)c2c(=O)ccc3c(c12)OC(N)=C(C#N)C3c1ccccc1Cl (configuration not stated) | inconclusive: 31.6 µM [inhibitor, single point] | 
CC(C)[C@@H](CC(=O)N[C@@H]1CCNC[C@H]1C(=O)N[C@H](CC(=O)N[C@@H](CCC(=O)O)CC(=O)O)Cc1c[nH]c2ccccc12)NC(=O)C[C@H](CO)NC(=O)[C@@H]1CCCC[C@H]1N |  | inactive: -21.6%
CCCC(=O)NCCc1c2n(c3ccc(OC)cc13)Cc1ccccc1-2 | active: 25.1 µM | 
O=C(CSc1nc2ccccc2s1)N1CCN(C(=O)c2ccco2)CC1 | inconclusive: 20 µM [inhibitor, partial curve] | 
O=C(c1cccs1)c1no[n+]([O-])c1C(=O)c1cccs1 | active: 0.631 µM | 
N#CC(c1nc2ccccc2nc1N1CCCC1)S(=O)(=O)c1cccs1 (configuration not stated) | inconclusive: 5.01 µM [inhibitor, full curve] | 
COCCNc1nc(C)nc2c1nc(-c1ccccc1)n2CC1CCN(C)CC1 | inconclusive: 31.6 µM [inhibitor, single point] | 
C=CCn1c(N)c(C(=O)NCc2ccco2)sc1=S | inconclusive: 10 µM [inhibitor, partial curve] | 
CCCOc1nc(N)c(C#N)c(-c2ccccc2F)c1C#N | inconclusive: 39.8 µM [inhibitor, single point] | 
O=c1c(-c2cccs2)nc2cncnc2n1-c1ccccc1 | inconclusive: 12.6 µM [inhibitor, partial curve] | 
COc1ccc(Nc2nc(N)nc(SCc3nnc(C)s3)n2)cc1 |  | inactive: 5.35%
C=CCn1c(SCc2ccccc2C#N)nnc1-c1ccccc1O |  | inactive: 2.35%
COc1ccc(CCNc2oc(-c3ccccc3OC)nc2C#N)cc1OC | active: 31.6 µM | 
Cc1occc(=O)c1O |  | inactive: -4.94%
O=C1c2ccccc2C(Nc2ccc3c(c2)OCO3)N1Cc1ccc2c(c1)OCO2 (configuration not stated) | inconclusive: 25.1 µM [inhibitor, partial curve] | 
C[N+](C)(CCCCCC[N+](C)(C)CCCN1C(=O)c2cccc3cccc(c23)C1=O)CCCN1C(=O)c2cccc3cccc(c23)C1=O | inconclusive: 39.8 µM [inhibitor, single point] | 
CCn1c(C(=O)Nc2ccsc2C(=O)OC)cc2sc(Cl)cc21 | inconclusive: 3.16 µM [inhibitor, single point] | 
NS(=O)(=O)c1ccc(NCc2nc3ccccc3[nH]2)cc1 | inconclusive: 0.501 µM [inhibitor, partial curve] | 
CCn1c(SCc2c(F)cccc2Cl)nnc1-c1ccco1 |  | inactive: 7.24%
COc1ccc2[nH]c(=O)c(CN(C(=O)C3CCCO3)c3ccc(C)cc3)cc2c1 (configuration not stated) | inconclusive: 1 µM [inhibitor, full curve] | 
